Test results taken from article PMC7819943, “Rice protein-binding microarrays: a tool to detect cis-acting elements near promoter regions in rice”.
Some of the results follow.

molecular target: T1, OsWOX13 (Oryza sativa, UniProt Q5QMM3 1-267); test: protein-binding microarray (RPBM); PBS, 2% BSA, 51.3 ng/ul salmon testes DNA, 50 uM zinc acetate, 200 nM TF, 25 C, 1 h; high values mean tight binding; conditions: protein: recombinant; tags: N-terminal polyhistidine and DsRed monomer fusion (pET32a); label: CyDye5-dUTP incorporated in the synthesized complementary strand; 3' TTTTT single-stranded linker to array surface; dsDNA, one strand shown
T1 sequence: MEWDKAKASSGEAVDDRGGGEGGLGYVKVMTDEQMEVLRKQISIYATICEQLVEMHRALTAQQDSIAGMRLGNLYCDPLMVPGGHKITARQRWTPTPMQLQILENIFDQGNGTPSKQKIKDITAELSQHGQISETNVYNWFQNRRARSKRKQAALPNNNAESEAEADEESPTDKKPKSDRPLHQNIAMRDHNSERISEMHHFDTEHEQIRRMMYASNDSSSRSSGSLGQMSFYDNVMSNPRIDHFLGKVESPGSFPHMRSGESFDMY
How it was run: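 Per-feature fluorescence intensity (arbitrary units), read on an Axon 4000B scanner, is the binding signal. Transcription factors carrying an N-terminal polyhistidine tag and DsRed fusion were expressed in E. coli BL21-CodonPlus and purified on Ni–NTA. A custom Agilent array, made double-stranded by primer extension with Cy5-dUTP and blocked with 2% BSA, was incubated with 200 nM protein in PBS, 2% BSA, salmon testes DNA and 50 µM zinc acetate at 25 °C for 1 h and then washed.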

Sequence	binding signal
AATAACTCTAATTTATTAAATATCAATGCAATTATTTCTTCGGAGTCACCTAGTGCAG	11800 fluorescence intensity (a.u.)
ACTGTAACTGAACATGATGTGCACCGGGTCGTCGGCCATACGGAGTCACCTAGTGCAG	10800 fluorescence intensity (a.u.)
CTACATTATTATCTCTATATAAATTAGATATAAAGTTGCACGGAGTCACCTAGTGCAG	4920 fluorescence intensity (a.u.)
CAGAACTACTCATCACCGATGATTAATTAAGTATTAGCTGCGGAGTCACCTAGTGCAG	13500 fluorescence intensity (a.u.)
AATCCATTAATTAATGTATTGGATCCTCGTAGACAATACGCGGAGTCACCTAGTGCAG	24600 fluorescence intensity (a.u.)
CAGGTAATGGATTGATTGCAGGGTTGGGATTTGACCAGGTCGGAGTCACCTAGTGCAG	51800 fluorescence intensity (a.u.)
GTCCATAATCACCTATCAAGAAACAGAGGTTTAAGACACACGGAGTCACCTAGTGCAG	3940 fluorescence intensity (a.u.)
ATGATTTAGAGCTATTAGTGGGCTGCTATATTGACCTTGCCGGAGTCACCTAGTGCAG	5700 fluorescence intensity (a.u.)
TAAAATAGTTAATACTCAATTAATCATACATTAATACGCTCGGAGTCACCTAGTGCAG	11200 fluorescence intensity (a.u.)
ATAAACCATTAAATATGATTAATTAAGTATTAATTATTTTCGGAGTCACCTAGTGCAG	12200 fluorescence intensity (a.u.)
TTGATTAGATGCGCTGTGTGGCTTCTTGTTCAGTGACAGGCGGAGTCACCTAGTGCAG	32400 fluorescence intensity (a.u.)
GCATTAAATTAGAAAGGTGAATAGTGATCCGGTTTTGGGACGGAGTCACCTAGTGCAG	15300 fluorescence intensity (a.u.)
GTTTGATTATGTGGTCTGCATGTGCCTAGTTTGACATCAGCGGAGTCACCTAGTGCAG	32700 fluorescence intensity (a.u.)
CAAAACTAATTTTCAGGAAGAAAACCAATCTAGAATTCCGCGGAGTCACCTAGTGCAG	3220 fluorescence intensity (a.u.)
GCGGGGATTTGGAAATTTGGATGGATTTGGGAATTTGGGTCGGAGTCACCTAGTGCAG	4420 fluorescence intensity (a.u.)
GTGATTTTGACAAATGTGTACTGCAAAGTACAAACCATTACGGAGTCACCTAGTGCAG	7340 fluorescence intensity (a.u.)
TAAAATGATTGAACCCTTGCATTCCGAGAGATCCTCGCTTCGGAGTCACCTAGTGCAG	45000 fluorescence intensity (a.u.)
TTTAGTTAGATTGGATAGTCATGTCGTAGTTCCATACCAACGGAGTCACCTAGTGCAG	21800 fluorescence intensity (a.u.)
AAAACGTGACGACAATAACATTTATTTGTAACAACATATTCGGAGTCACCTAGTGCAG	4060 fluorescence intensity (a.u.)
TAGATTGTTATAGATTTATTATACTGCTACTCCTATCACACGGAGTCACCTAGTGCAG	14900 fluorescence intensity (a.u.)
AGACATGATTAATTTTAGTTTCCAAAGTTGAAAACAAACACGGAGTCACCTAGTGCAG	18900 fluorescence intensity (a.u.)

Sequence	binding signal
AACTTATATAAGTTAAATTTAAACTTATATGTTTGTGGGGCGGAGTCACCTAGTGCAG	4170 fluorescence intensity (a.u.)
TTTGGATTGAAGCCAAAATATGTCCATAAGAGACAAGTTCCGGAGTCACCTAGTGCAG	7350 fluorescence intensity (a.u.)
TTCCGAATTTCAGTTATTTCCTAATTGTATTTCTATATGGCGGAGTCACCTAGTGCAG	4550 fluorescence intensity (a.u.)
GATGATTAGTGGAGACCTGAGAGGGAGAGACCATGGAGTCCGGAGTCACCTAGTGCAG	26900 fluorescence intensity (a.u.)
ATGCAAAATCACACCAATTAACTTTGAATATAATCATGTCCGGAGTCACCTAGTGCAG	17900 fluorescence intensity (a.u.)
TATATTGACTATAAATAATTTAAAGATAGTAGTTGACTATCGGAGTCACCTAGTGCAG	6120 fluorescence intensity (a.u.)
ATAATTAGGCCTTGACTGCAATAAAAGCTAAAACTTTGTTCGGAGTCACCTAGTGCAG	29700 fluorescence intensity (a.u.)
ATCATAATGTGTATGCATGATTAGAGGGCGCAAATTTGTACGGAGTCACCTAGTGCAG	14600 fluorescence intensity (a.u.)
TTTAAGATCATGATTAACATGACATTGAAGCATTACCACGCGGAGTCACCTAGTGCAG	5610 fluorescence intensity (a.u.)
GAGCTAGCATTAATTTGTTGCAATCCTATGATGGATGGATCGGAGTCACCTAGTGCAG	4630 fluorescence intensity (a.u.)
TAGGTAAAGTCAATCATCAATGACTTCATCACTTCACAGCCGGAGTCACCTAGTGCAG	12400 fluorescence intensity (a.u.)
GTAAATTGAACAACGGTTGTAAAGCCAAAATAATACGCATCGGAGTCACCTAGTGCAG	24400 fluorescence intensity (a.u.)
ATTGATTCTTAACAAATTAGTATTTGCAATTTGTGAGGGCCGGAGTCACCTAGTGCAG	23600 fluorescence intensity (a.u.)
ACAGATTGCGTGTAAATTGCGAGACGAATCTTTTAAGTCTCGGAGTCACCTAGTGCAG	29700 fluorescence intensity (a.u.)
CAGAATTAAGTTTAACAATTAGATTGTGTAATCATAATTGCGGAGTCACCTAGTGCAG	12200 fluorescence intensity (a.u.)
GACTAGATTAATAGTAAACCACCTTAATAGTATGTCTACACGGAGTCACCTAGTGCAG	7550 fluorescence intensity (a.u.)
CCATATCTTTAATTTATACTTAATTTATAAGACATATCTTCGGAGTCACCTAGTGCAG	16100 fluorescence intensity (a.u.)
GCAACTTGGATGATTTGTTCTTGGATACTATGGCAGATGGCGGAGTCACCTAGTGCAG	3690 fluorescence intensity (a.u.)
CTCCTGATTGGTCCGCCTCCTCCATCCTCGTCTCCACCCACGGAGTCACCTAGTGCAG	36000 fluorescence intensity (a.u.)
TCCTCTAACTGTTCGTCATGCTCTGGATTTTGGTGGTGGCCGGAGTCACCTAGTGCAG	3660 fluorescence intensity (a.u.)
AAAAGAGATGGATTGATCAACAAGCCTTAGATATTCTCCACGGAGTCACCTAGTGCAG	6270 fluorescence intensity (a.u.)
